Measured values published in the supplement of paper PMC8674133.

B1: C1321 (protein)
chain 1: EVQLVESGGGLVQPGGSLRLSCAASGIIVSSNYMSWVRQAPGKGLEWVSIIYSGGSTFYADSVKGRFTISRDNSKNTLYLQMNSLRAEDTAVYYCARDRGGFIDYWGQGTLVTVSS
chain 2: DIQMTQSPSSLSASVGDRVTITCRASQGISNYLAWYQQKPGKVPKLLIYAASTLQSGVPSRFSGSGSGTDFTLTISSLQPEDVATYYCQKYNSAPPWTFGQGTKVEIK
B2: C2464 (protein)
chain 1: VQLVESGGGVVQPGRSLRLSCAASGFTFSIYPLHWVRQTPGTGLEWVAAISFDGTHKHYRDSVKGRFTISRDNSKNTLYLQMDSLRAEDTAVYYCVSLITMIRGVPDCWGQGTLVTVSS
chain 2: DIQLTQSPSSLSASVGDRLTITCRTSQNISNYLNWYQQKPGRAPKLLIYAASSLQSGVPSRFSASGSGTGFTLSINNLQPEDFATYFCQQSHSIPITFGQGTRLEIK
B3: C1364 (protein)
chain 1: EVQLVQSGAEVKKPGESLKISCKGSGYSFTSYWIAWVRRMPGKGLEWMGIIYPGDSETRYSPSFQGQVTISADKSISTAYLQWSSLEASDTAMYYCARQYCGGDCPFDYWGQGTLVTVSS
chain 2: EIVLTQSPGTLSLSPGERATLSCRASQSVSSSYLAWYQQKPGLAPRLLIYDTSNRATGIPDRFSGSGSGTDFTLTISRLEPEDFAVYYCQQYGSSKFTFGPGTKVDIK
B4: C1322 (protein)
chain 1: EVQLVESGGGLVQPGGSLRLSCAASGFTFSSYDMHWVRQSTGKGLEWVAAIGTAGDTYYPDSVKGRFTISRENAKKSLYLQMHSLRAGDTAVYYCARDVGGYWYFDLWGRGTLVTVSS
chain 2: DIQLTQSPSSLSASLGDRVTITCRASQTIFSYLNWYQQKPGKAPKLLIYAASSLQSGVPSRFGGSGSGTDFTLTISSLQPEDFATYYCQQSYSTPPITFGQGTRLEIK
B5: C1358 (protein)
chain 1: EVQLVESGGGLVQPGGSLRLSCAASGFTFSDYDMHWVRQAPGKGLEWVSAIGTAGDTYYPDSVKGRFTISRENAKNSLYLQMNSLRAGDTAVYYCARVNYDSSSFYMFFDYWGQGSLVTVSS
chain 2: DIQLTQSPSSLSASVGDRVTITCRASQSIGSYLNWYQQKPGKAPNLLIYTASSLQSGVPSRFSGSGSGTDFTLIISSLQPEDFATYYCQQSYSFPPYTFGQGTKLEIK
B6: C1324 (protein)
chain 1: EVQLVESGGGLVQPGGSLRLSCAASGFAFSTYDMHWVRQATGKGLEWVSAIGTSGDTYYSDSVKGRFTISREDAKNSLYLQMNSLRAGDTAVYYCARGDSWNSYFYVFDVWGQGTTVTVSS
chain 2: DIQLTQSPSSLSASVGDRVTITCRASQSIGTYLNWYQQKPGKAPKLLIYAASSLQSGVPSRFSGSGSGTDFTLTISSLQPEDFATYSCQQSYSSPPWTFGQGTKVEIK
B7: C1317 (protein)
chain 1: EVQLVQSGAEVKKPGESLKISCKGSGYSFTSCWIGWVRQMPGKGLEWMGIIYPGDSDTRYSPSFQGQVTISADRSISTAYLEWSSLKASDTAMYYCARSETYVIPPDYWGQGTLVTVSS
chain 2: QSVLTQPPSASGTPGQRVTISCSGSSSNIGSNAVNWYQQLPGTAPKLLIYNNDERPSGVPDRFSGSKSGTSASLAIGGLQSEDEADYSCAAWDDSLNGWVFGGGTKLTVL
B8: C1330 (protein)
chain 1: QVQLVQSGAEVKKPGASVKVSCKVSGYSLTELSMHWVRQAPGKGLEWMGGFDPEDGETIYAQKFQGRVTMTEDTSTDTAYMELSSLRSEDTAVYYCATVLISMIRGGEYHMNVWGQGTTVTVSS
chain 2: SYELTQPPSVSVSPGQTARITCSGDAFPNQYAYWYQQQPGQAPVLVIYKDSERPSGIPERISGSSSGTTVTLTINGVRAEDEADYYCQSADSSGVIFGGGTKLTVL
B9: C1359 (protein)
chain 1: EVQLVESGGGLIQPGGSLRLSCAASGFTVSSNYMSWVRQAPGKGLEWVSIIYSGGSTFYADSVKGRFTISRDSSKNTLYLQINSLRAEDTAVYYCARDVPRNSGGYWGQGTLVTVSS
chain 2: IRMTQSPSSLSASVGDRVTITCQASQDISNYLNWYQQKPGKAPKLLIYDASNLETGVPSRFSGSGSGTDFTFTISSLQPEDIATYYCQQYDNLPITFGQGTRLEIK
B10: C1326 (protein)
chain 1: EVQLVESGGGLIQPGGSLRLSCAASGLTVSSNYMTWVRQAPGKGLEWVSVIYSGGSTFYADSVKGRFTISRDTSKNTLYLQMNSLRAEDTAVYYCARDLAAAGAFDIWGQGTMVTVSS
chain 2: DIQMTQSPSSLSASVGDRVTITCRASQGISNSLAWYQQKPGKAPKLLLYAASRLESGVPSRFSGSGSGTDYTLTISSLQPEDFATYYCQQYYSTLPYTFGQGTKLEIK
B11: C1369 (protein)
chain 1: QVQLVQSGAEVKKPGSSVKVSCKASGGTFSSYTISWVRQAPGQGLEWMGRIIPILGITNYAQKFQGRVTITADKSTSTAYMELSSLRSEDTAVYYCARDPRPLVPAAINYGMDVWGQGTTVTVSS
chain 2: DIVMTQSPLSLPVTPGEPASISCRSSQSLLQSNGNNYLDWYLQKPGQSPQLLIYLGSHRASGVPDRFSGSGSGTDFTLKISRVEAEDVGVYYCMQALQTPPLTFGGGTKVEIK
B12: C1328 (protein)
chain 1: EVQLVESGGGLVQPGRSLRLSCAASGFTFDDYAMHWVRQAPGKGLEWVSGISWNSVSIDYADSVKGRFTISRDNAKNSLYLQMNSLRAEDTALYYCAKSARLPGDYFDYWGQGTLVTVSS
chain 2: SYELTQPPSVSVAPGKTARITCGGDYIGSKSVHWYQQKPGQAPVLVIYDDSDRPSGIPERFSGSNSGNTATLTISRVEAGDEADYYCQVWDSTSNHPGVVFGGGTKLTVL
B13: C1329 (protein)
chain 1: EVQLVQSGAEVKKPGESLKISCKGSGYSFTNYWIGWVRQMPGKGLEWMGIIYPGDSDTRYSPSFQGQVTMSADKSINTAYLQWSSLRASDTAMYYCARPVGDYPMRHFDYWGQGTLVTVSS
chain 2: SYELTQPPSVSVAPGKTARIPCGGNNIGIKSVQWYQQKPGQAPVLVIYGDSGRPSGIPDRFSGSNSGNTATLTISRVEAGDEADYYCQVWDSNSDHYVFGAGTKVTVL
B14: C2466 (protein)
chain 1: EVQLVESGGGLVKPGGSHRLSCAASGFTFSYAWMSWVRQAPGKGLEWVGRIKMKTDGGTADYAAPVKGRFTISRDDSKSTLYLQMNSLKTEDTAVYYCTTTSDYGDYSPVYWGQGTLVTVSS
chain 2: DIQLTQSPSSLSASVGDRVTITCRASQSIASYLNWYQQKPGKAPKLLIYAASNLQSGVPSSFSGSGSGTHFTLTITSLQPADFAIYYCQQSYSFPLTFGGGTKVEIK
B15: C1331 (protein)
chain 1: EVQLVESGGGLVQPGGSLRLSCAASGFTFSTYDMHWVRQVIGKGLEWVSGIGTSGDTYYSDSVKGRFTISRENAKKSVFLQMNSLRAGDTAVYYCARAVDSSSWHSNWYFDLWGRGTLVTVSS
chain 2: DIVMTQSPDSLAVSLGERATINCKSSQSVLYKSDNKNFLAWYQQKPGQPPKLLIYWASTRESGVPDRFSGSGSGTDFTLTISSLQAEDVAVYYCQQYYTTPMITFGQGTRLEIK
B16: C1320 (protein)
chain 1: EVQLVESGGGLVQPGRSLRLSCAASGFTFDDYAMHWVRQAPGKGLEWVSGISWNSGIIGYADSVKGRFTISRDNAKNSLYLQMNSLRAEDTALYYCAKDKIHSSWYGEEAGDFDYWGQGTLVTVSS
chain 2: QSALTQPASVSASPGQSITISCTGTSSDVGGYNFVSWYQQHPGKAPKLMIYEVTNRPSGVSNRFSGSKSGNTASLTISGLQAEDEADYYCSSYTSSSAVLFGGGTKLTVL

Molecular target: SARS-CoV-2 Wuhan-Hu-1 spike pseudovirus
Assay: pseudovirus neutralization IC50; higher = weaker neutralization
Method: (§1)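 Single-round luciferase reporter pseudovirus mixed with antibody dilutions and put on 293T-ACE2 cells for 48 h; signal relative to no-antibody wells, four-parameter fit.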

Row | Binder | pseudovirus neutralization IC50 [µg/mL]
1 | B1 | 0.0122
2 | B2 | 0.00465
3 | B3 | 0.556
4 | B4 | > 1
5 | B5 | > 1
6 | B6 | > 1
7 | B7 | 0.345
8 | B8 | 0.481
9 | B9 | 0.0256
10 | B10 | 0.00672
11 | B11 | 0.00175
12 | B12 | 0.407
13 | B13 | 0.208
14 | B14 | > 1
15 | B15 | > 1
16 | B16 | 0.0211

Molecular target: SARS-CoV-2 Wuhan-Hu-1 spike pseudovirus
Assay: pseudovirus neutralization IC90; higher = weaker neutralization
Method: as §1

Row | Binder | pseudovirus neutralization IC90 [µg/mL]
17 | B1 | 0.113
18 | B2 | 0.0125
19 | B3 | > 1
20 | B4 | > 1
21 | B5 | > 1
22 | B6 | > 1
23 | B7 | > 1
24 | B8 | > 1
25 | B9 | 0.128
26 | B10 | 0.0606
27 | B11 | 0.0292
28 | B12 | > 1
29 | B13 | > 1
30 | B14 | > 1
31 | B15 | > 1
32 | B16 | 0.149

Molecular target: SARS-CoV-2 Wuhan-Hu-1 spike receptor-binding domain
Assay: ELISA binding EC50; higher = weaker binding; ELISA of recombinant human antibody on coated antigen, from 10 µg/ml in fourfold dilutions; four-parameter fit.

Row | Binder | ELISA binding EC50 [µg/mL]
33 | B1 | 0.00173
34 | B2 | 0.00171
35 | B3 | 0.00129
36 | B4 | 0.00168
37 | B5 | 0.0026
38 | B6 | 0.00233
39 | B7 | 0.00262
40 | B8 | 0.00306
41 | B9 | 0.00273
42 | B10 | 0.00251
43 | B11 | 0.00144
44 | B12 | 0.00244
45 | B13 | 0.00189
46 | B14 | 0.00179
47 | B15 | 0.0024
48 | B16 | 0.00135

Recombinant human monoclonal antibodies (heavy:light variable regions). ELISA EC50 on the named antigen, from 10 µg/ml down; IC50 / IC90 against spike pseudovirus on 293T-ACE2 cells, 48 h; lower = stronger. Calls: IC50 above 1,000 ng/ml = non-neutralizing; EC50 above 2,000 ng/ml = non-binder. The source prints 1000 for neutralization that was not reached; it is given as >1000 ng/ml. A few antibodies were first reported in earlier work of the same group.
